27 molecules from patent US11999716B2, “WDR5 inhibitors and modulators” (priority 2018, dated 2024) can be followed below.

The term Ki denotes a dissociation constant, usually derived from enzyme kinetics or from competition with a known ligand.

For this assay, the target named is WDR5 (Homo sapiens, UniProt P61964). The assay is described as follows: biochemical. In kind it is binding. To be noted: WDR5-His tag (Δ23, residues 24-334) 2 nM; 10mer-Thr-FAM probe 150 nM; Tb-anti-HIS 1 nM; 60 min, room temperature; read-out: Ki for Inhibition of WDR5 by TR-FRET assay.

For the molecule `COc1ccnc(CN2CCc3c(cc(Cn4ccn(C)c4=N)cc3C3CC3)C2=O)c1` [Example 54, 5-Cyclopropyl-7-((2-imino-3-methyl-2,3-dihydro-1H-imidazol-1-yl)methyl)-2-((4-methoxypyridin-2-yl)methyl)-3,4-dihydroisoquinolin-1(2H)-one], the Ki was found to be 0.57 nM. In the case of `Cc1nccn1Cc1cc2c(c(-c3cn(C)nc3C(F)(F)F)c1)CCN(Cc1cc(Br)cc3[nH]ccc13)C2=O` [Example 236, 2-((6-Bromo-1H-indol-4-yl)methyl)-7-((2-methyl-1H-imidazol-1-yl)methyl)-5-(1-methyl-3-(trifluoromethyl)-1H-pyrazol-4-yl)-3,4-dihydroisoquinolin-1(2H)-one] it was below 0.05 nM; in that of `Cc1ccnc([C@H](C2CC2)N2CCc3c(cc(Cn4ccn(C)c4=N)cc3-c3cccnc3C(F)(F)F)C2=O)c1` [Example 36, (S)-2-(Cyclopropyl(4-methylpyridin-2-yl)methyl)-7-((2-imino-3-methyl-2,3-dihydro-1H-imidazol-1-yl)methyl)-5-(2-(trifluoromethyl)pyridin-3-yl)-3,4-dihydroisoquinolin-1(2H)-one], below 0.05 nM. In the case of `CCn1cc(-c2cc(Cn3ccnc3C3CC3)cc3c2CCN(Cc2cc(C)nn2C)C3=O)c(C(F)(F)F)n1` [Example 14, 7-((2-Cyclopropyl-1H-imidazol-1-yl)methyl)-2-((1,3-dimethyl-1H-pyrazol-5-yl)methyl)-5-(1-ethyl-3-(trifluoromethyl)-1H-pyrazol-4-yl)-3,4-dihydroisoquinolin-1(2H)-one] it was 0.29 nM; in that of `Cc1nccn1Cc1cc2c(c(-c3cn(C)nc3C(F)(F)F)c1)CCN(Cc1cc(C3CC3)nn1C)C2=O` [Example 148, 2-((3-Cyclopropyl-1-methyl-1H-pyrazol-5-yl)methyl)-7-((2-methyl-1H-imidazol-1-yl)methyl)-5-(1-methyl-3-(trifluoromethyl)-1H-pyrazol-4-yl)-3,4-dihydroisoquinolin-1(2H)-one], below 0.05 nM. In the case of `COc1cc(CN2CCc3c(cc(Cn4ccccc4=N)cc3-c3ccc(F)cc3C)C2=O)cc(OC)c1` [Example 116, 2-(3,5-Dimethoxybenzyl)-5-(4-fluoro-2-methylphenyl)-7-((2-iminopyridin-1(2H)-yl)methyl)-3,4-dihydroisoquinolin-1(2H)-one] it was 0.25 nM; in that of `COc1ccnc(CN2CCc3c(cc(Cn4ccnc4C)cc3-c3cc(F)cnc3C)C2=O)c1` [Example 229, 5-(5-Fluoro-2-methylpyridin-3-yl)-2-((4-methoxypyridin-2-yl)methyl)-7-((2-methyl-1H-imidazol-1-yl)methyl)-3,4-dihydroisoquinolin-1(2H)-one], 0.19 nM. `COc1cncc(CN2CCc3c(cc(Cn4ccnc4C)cc3-c3cn(C)nc3C(F)(F)F)C2=O)c1` [Example 228, 2-((5-Methoxypyridin-3-yl)methyl)-7-((2-methyl-1H-imidazol-1-yl)methyl)-5-(1-methyl-3-(trifluoromethyl)-1H-pyrazol-4-yl)-3,4-dihydroisoquinolin-1(2H)-one]: the Ki is below 0.05 nM. In the case of `Cc1nccn1Cc1cc2c(c(-c3cn(C)nc3C(F)(F)F)c1)CCN(Cc1ccc3ccccc3n1)C2=O` [Example 176, 7-((2-Methyl-1H-imidazol-1-yl)methyl)-5-(1-methyl-3-(trifluoromethyl)-1H-pyrazol-4-yl)-2-(quinolin-2-ylmethyl)-3,4-dihydroisoquinolin-1(2H)-one], the Ki is below 0.05 nM. Regarding `COc1ccnc(CN2CCc3c(cc(Cn4ccnc4C)cc3-c3cn(C)nc3C(F)(F)F)C2=O)c1` [Example 8, 2-((4-Methoxypyridin-2-yl)methyl)-7-((2-methyl-1H-imidazol-1-yl)methyl)-5-(1-methyl-3-(trifluoromethyl)-1H-pyrazol-4-yl)-3,4-dihydroisoquinolin-1(2H)-one], the Ki is below 0.05 nM.

As for `Cc1nccn1Cc1ccc2c(c1)C(=O)N(Cc1cc(Cl)cc(Cl)c1)CC2` [Example 2, 2-(3,5-Dichlorobenzyl)-7-((2-methyl-1H-imidazol-1-yl)methyl)-3,4-dihydroisoquinolin-1(2H)-one], the inhibition constant Ki amounted to 14 nM. For the molecule `Cc1cc2c(c(CN3CCc4c(cc(Cn5ccnc5C)cc4-c4cn(C)nc4C(F)(F)F)C3=O)c1)OCC2` [Example 218, 7-((2-Methyl-1H-imidazol-1-yl)methyl)-2-((5-methyl-2,3-dihydrobenzofuran-7-yl)methyl)-5-(1-methyl-3-(trifluoromethyl)-1H-pyrazol-4-yl)-3,4-dihydroisoquinolin-1(2H)-one], the Ki is below 0.05 nM. In the case of `COc1ccnc(CN2CCc3c(cc(Cn4ccn(C)c4=N)cc3-c3cccnc3C)C2=O)c1` [Example 60, 7-((2-Imino-3-methyl-2,3-dihydro-1H-imidazol-1-yl)methyl)-2-((4-methoxypyridin-2-yl)methyl)-5-(2-methylpyridin-3-yl)-3,4-dihydroisoquinolin-1(2H)-one] it was 0.03 nM. With `COc1ccnc(CN2Cc3c(cc(Cn4ccn(C)c4=N)cc3-c3cccnc3C)C2=O)c1` [Example 139, 6-((2-Imino-3-methyl-2,3-dihydro-1H-imidazol-1-yl)methyl)-2-((4-methoxypyridin-2-yl)methyl)-4-(2-methylpyridin-3-yl)isoindolin-1-one], the inhibitory constant (Ki) was found to be 2.3 nM. As for `CCc1ccnc(CN2CCc3c(cc(Cn4ccnc4C)cc3-c3cn(CC)nc3C(F)(F)F)C2=O)c1` [Example 21, 5-(1-Ethyl-3-(trifluoromethyl)-1H-pyrazol-4-yl)-2-((4-ethylpyridin-2-yl)methyl)-7-((2-methyl-1H-imidazol-1-yl)methyl)-3,4-dihydroisoquinolin-1(2H)-one], the Ki came to 0.034 nM. In the case of `Cc1nccn1Cc1cc2c(c(-c3cn(C)nc3C(F)(F)F)c1)CCN(c1ccccc1OC(C)C)C2=O` [Example 256, 2-(2-Isopropoxyphenyl)-7-((2-methyl-1H-imidazol-1-yl)methyl)-5-(1-methyl-3-(trifluoromethyl)-1H-pyrazol-4-yl)-3,4-dihydroisoquinolin-1(2H)-one], the Ki came to 2.4 nM. For the molecule `CCn1cc(-c2cc(Cn3ccsc3=N)cc3c2CCN(Cc2cc(OC)ccn2)C3=O)cn1` [Example 102, 5-(1-ethyl-1H-pyrazol-4-yl)-7-((2-iminothiazol-3(2H)-yl)methyl)-2-((4-methoxypyridin-2-yl)methyl)-3,4-dihydroisoquinolin-1(2H)-one], the Ki is 2.6 nM. Take `COc1ccnc(CN2Cc3c(cc(Cn4ccn(C)c4=N)cc3-c3ccc(F)cc3C)C2=O)c1` [Example 138, 4-(4-Fluoro-2-methylphenyl)-6-((2-imino-3-methyl-2,3-dihydro-1H-imidazol-1-yl)methyl)-2-((4-methoxypyridin-2-yl)methyl)isoindolin-1-one]: the Ki worked out at 0.62 nM. In the case of `CCn1cc(-c2cc(Cn3ccoc3=N)cc3c2CCN(Cc2cc(OC)ccn2)C3=O)cn1` [Example 87, 5-(1-Ethyl-1H-pyrazol-4-yl)-7-((2-iminooxazol-3(2H)-yl)methyl)-2-((4-methoxypyridin-2-yl)methyl)-3,4-dihydroisoquinolin-1(2H)-one], the inhibitory constant (Ki) came out at 0.77 nM.

As for `CCn1cc(-c2cc(CN3CCOC3=N)cc3c2CCN(Cc2cc(C)nn2C)C3=O)c(C(F)(F)F)n1` [Example 95, 2-((1,3-Dimethyl-1H-pyrazol-5-yl)methyl)-5-(1-ethyl-3-(trifluoromethyl)-1H-pyrazol-4-yl)-7-((2-iminooxazolidin-3-yl)methyl)-3,4-dihydroisoquinolin-1(2H)-one], the Ki was below 0.05 nM.

As for `CCn1cc(CN2CCc3c(cc(Cn4ccnc4C)cc3-c3cn(CC)nc3C(F)(F)F)C2=O)nn1` [Example 15, 2-((1-Ethyl-1H-1,2,3-triazol-4-yl)methyl)-5-(1-ethyl-3-(trifluoromethyl)-1H-pyrazol-4-yl)-7-((2-methyl-1H-imidazol-1-yl)methyl)-3,4-dihydroisoquinolin-1(2H)-one], the Ki was below 0.05 nM. Consider `COc1cc(CN2CCc3c(cc(Cn4ccoc4=N)cc3-c3ccc(F)cc3C)C2=O)cc(OC)c1` [Example 81, 2-(3,5-Dimethoxybenzyl)-5-(4-fluoro-2-methylphenyl)-7-((2-iminooxazol-3(2H)-yl)methyl)-3,4-dihydroisoquinolin-1(2H)-one], for which the Ki is below 0.05 nM. In the case of `COc1ccnc([C@H](C2CC2)N2CCc3c(cc(Cn4ccnc4)cc3-c3cn(C)nc3C)C2=O)c1` [Example 211, (S)-7-((1H-Imidazol-1-yl)methyl)-2-(cyclopropyl(4-methoxypyridin-2-yl)methyl)-5-(1,3-dimethyl-1H-pyrazol-4-yl)-3,4-dihydroisoquinolin-1(2H)-one] it was below 0.05 nM; in that of `Cc1cncc(CN2CCc3c(cc(Cn4ccnc4C)cc3-c3cn(C)nc3C(F)(F)F)C2=O)c1` [Example 157, 7-((2-Methyl-1H-imidazol-1-yl)methyl)-5-(1-methyl-3-(trifluoromethyl)-1H-pyrazol-4-yl)-2-((5-methylpyridin-3-yl)methyl)-3,4-dihydroisoquinolin-1(2H)-one], below 0.05 nM. `COc1cc(CN2CCc3c(cc(Cn4ccn(C)c4=N)cc3-c3cccnc3C(F)(F)F)C2=O)cc(OC)c1` [Example 35, 2-(3,5-Dimethoxybenzyl)-7-((2-imino-3-methyl-2,3-dihydro-1H-imidazol-1-yl)methyl)-5-(2-(trifluoromethyl)pyridin-3-yl)-3,4-dihydroisoquinolin-1(2H)-one]: the inhibition constant Ki is below 0.05 nM. Consider `CCc1cccc(CN2CCc3c(cc(Cn4ccnc4C)cc3-c3cn(C)nc3C(F)(F)F)C2=O)c1` [Example 210, 2-(3-Ethylbenzyl)-7-((2-methyl-1H-imidazol-1-yl)methyl)-5-(1-methyl-3-(trifluoromethyl)-1H-pyrazol-4-yl)-3,4-dihydroisoquinolin-1(2H)-one], for which the Ki was below 0.05 nM. For the molecule `CCn1cc(CN2CCc3c(cc(Cn4ccoc4=N)cc3-c3cn(CC)nc3C(F)(F)F)C2=O)nn1` [Example 96, 2-((1-Ethyl-1H-1,2,3-triazol-4-yl)methyl)-5-(1-ethyl-3-(trifluoromethyl)-1H-pyrazol-4-yl)-7-((2-iminooxazol-3(2H)-yl)methyl)-3,4-dihydroisoquinolin-1(2H)-one], the Ki is below 0.05 nM.
